Test results from PubChem BioAssay (NCATS).
The list shows a part of the results. The main result of the screen is listed elsewhere. These columns were measured beside it and carry no call. The list favours compounds with an active or inconclusive main result. Potencies come from curve fits of mixed quality, noted in brackets.

The compounds below were run against Histamine N-methyltransferase (Homo sapiens) (UniProt P50135) (assay: Confirmatory Screen for Target Class Profiling of Small Molecule Inhibitors of Methyltransferases (AID 1745852;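 note: inhibitor potency for blocking SAH production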)). Conditions: MTase-Glo luminescence, SAH detection, recombinant enzyme; measured here: HNMT inhibition potency.
Chain of UniProt P50135 (P50135 whole entry, looked up): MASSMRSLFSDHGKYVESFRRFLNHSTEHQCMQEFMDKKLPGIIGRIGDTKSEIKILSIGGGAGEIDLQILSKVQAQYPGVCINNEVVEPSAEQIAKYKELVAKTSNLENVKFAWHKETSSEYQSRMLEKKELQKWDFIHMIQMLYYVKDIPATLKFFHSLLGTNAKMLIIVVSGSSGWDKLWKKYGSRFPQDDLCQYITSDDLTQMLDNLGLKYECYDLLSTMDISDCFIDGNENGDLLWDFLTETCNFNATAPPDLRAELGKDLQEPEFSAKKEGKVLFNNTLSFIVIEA
Tags give direction and shape of the fitted curve.

SMILES	IC50
O=S(=O)(c1ccc(Br)cc1)c1nnn2c1nc(NCCc1c[nH]c3ccccc13)c1ccccc12	17.1 µM [falling, partial curve]
CCN(CC)CCCNC(=O)CCc1nnc2n(CCc3ccccc3)c(=O)c3ccccc3n12	15.2 µM [falling, partial curve]
CNc1cc(C2CC(NC(=O)COc3ccc(Cl)cc3C)C2)nc(N)n1 (stereo not given)	19.2 µM [falling, partial curve]
Cn1nccc1-c1cc2c(cn1)CN(Cc1ccncc1)CCN2	35 µM [falling, partial curve]
CC1CCCCN1CCNC(=O)Cn1ccc2cc(S(=O)(=O)N3CCCCC3)ccc21 (stereo not given)	21.5 µM [falling, partial curve]
COC(=O)C1=C2Nc3ccccc3C23CCN2CCCC(C(C)O)(C1)C23 (stereo not given)	14.9 µM [falling, partial curve]
CN(CCc1nc2ccc(Cl)cc2[nH]1)c1cc(C2CC(O)C2)nc(N)n1 (stereo not given)	15.2 µM [falling, partial curve]
CN(CCCNC(=O)CCCc1nnc2n3nc(-c4ccccc4)nc3c3ccccc3n12)Cc1ccccc1	5.41 µM [falling, full curve]
CCNc1nccc(N2CCC(CC(=O)N3CCN(c4ccccc4F)CC3)CC2)n1	19.2 µM [falling, partial curve]
Nc1c(NC/C=C\COc2cc(CN3CCCCC3)ccn2)c(=O)c1=O	19.2 µM [falling, partial curve]
CC1(C)[C@H](Cc2cc(-c3ccccc3)on2)C[C@@H]1NCC1CC1	35 µM [falling, partial curve]
COc1cccc(-c2ccccc2NC(=O)C2CCN(CC=C(C)C)CC2)c1	19.2 µM [falling, partial curve, poor fit]
COc1ccc2nc([C@H]3CCN(C4CCCCC4)C3)[nH]c2c1	31.2 µM [falling, partial curve]
O=C(CCc1nnc2n(Cc3ccc(F)cc3)c(=O)c3ccccc3n12)NCCN1CCCC1	15.2 µM [falling, partial curve]
O=C(Nc1ccc2c(N3CCCCC3)ncnc2c1)c1ccccc1C(F)(F)F	19.2 µM [falling, partial curve]
c1ccc(CO[C@H]2COCCN(c3nc4ccccc4o3)C2)cc1	24.8 µM [falling, partial curve]
O=C(CCc1nnc2n(Cc3ccc(F)cc3)c(=O)c3ccccc3n12)N1CCC(N2CCCCC2)CC1	6.81 µM [falling, partial curve]
COc1ccc(CNc2cc3c(cn2)CN(C)CCN3)cc1OC	6.23 µM [falling, full curve]
CCN(CC)CCNC(=O)CCc1nnc2n(CCc3ccccc3)c(=O)c3ccccc3n12	21.5 µM [falling, partial curve]
CN1CCC(N2CC[C@H](c3nc4ccc(C(F)(F)F)cc4[nH]3)C2)CC1	31.2 µM [falling, partial curve]
Cn1c(=O)n(C)c2cc(S(=O)(=O)Nc3cc4c(cc3NCc3ccccc3)n(C)c(=O)n4C)ccc21	21.5 µM [falling, partial curve]
CC1CCCCN1CCCNC(=O)c1cc2c(s1)CN(C1CCCC1)C2 (stereo not given)	19.2 µM [falling, partial curve]
CN1C(=O)C(c2ccccc2)CC12CCN(c1ccnc(N)n1)CC2 (stereo not given)	21.5 µM [falling, partial curve]
COc1ncccc1-c1nccn2c(C3CN(Cc4ccccc4O)C3)ncc12	1.56 µM [falling, full curve]
O=C(CCc1nnc2n(Cc3ccccc3Cl)c(=O)c3ccccc3n12)N1CCC(N2CCCCC2)CC1	13.6 µM [falling, partial curve]
CCn1c(-c2nonc2N)nc2c(C#CC(C)(C)O)ncc(OCC3CCCNC3)c21 (stereo not given)	24.1 µM [falling, single point]
Cc1ncc(CCCN(C)C)cc1Nc1ncc2c(n1)-c1ccc(C(F)(F)F)cc1NC(=S)C2	19.2 µM [falling, partial curve]
CN1CCN(C)c2cnc(-c3cnn(Cc4ccccc4)c3)cc2C1	31.2 µM [falling, partial curve]
CN1CCC(c2c[nH]c3ccc(NC(=O)c4ccc(F)cc4)cc23)CC1	15.2 µM [falling, partial curve]
CC1CCCCN1CCCNC(=O)Cn1ccc2cc(S(=O)(=O)N3CCCCC3)ccc21 (stereo not given)	10.8 µM [falling, partial curve]
